Experimental data taken from PMC7881268.
No constants are given. Whether binding was seen depends on the method and setting. Binding seen in cells or lysates may run through a third protein. Some entries that bind do so weakly or less than the wild type. Tags and fused reporters may be left off the sequences shown.

T1: PLIN2-mCherry (mouse) (UniProt P43883)
T1 sequence: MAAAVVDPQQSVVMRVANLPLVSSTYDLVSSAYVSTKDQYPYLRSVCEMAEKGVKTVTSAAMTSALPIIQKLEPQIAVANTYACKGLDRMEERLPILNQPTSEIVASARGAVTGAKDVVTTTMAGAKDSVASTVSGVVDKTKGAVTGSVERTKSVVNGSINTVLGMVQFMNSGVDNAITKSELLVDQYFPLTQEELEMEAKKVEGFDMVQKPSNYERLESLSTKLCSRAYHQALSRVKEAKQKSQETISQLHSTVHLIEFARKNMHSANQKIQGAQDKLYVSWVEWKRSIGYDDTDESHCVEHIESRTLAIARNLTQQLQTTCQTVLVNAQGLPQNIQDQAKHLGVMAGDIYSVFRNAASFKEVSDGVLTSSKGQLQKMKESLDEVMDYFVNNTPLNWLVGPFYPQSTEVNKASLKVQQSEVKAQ

T2: DGAT1-mCherry (diacylglycerol acyltransferase 1 fused to mCherry) (mouse) (UniProt Q9Z2A7)
T2 sequence: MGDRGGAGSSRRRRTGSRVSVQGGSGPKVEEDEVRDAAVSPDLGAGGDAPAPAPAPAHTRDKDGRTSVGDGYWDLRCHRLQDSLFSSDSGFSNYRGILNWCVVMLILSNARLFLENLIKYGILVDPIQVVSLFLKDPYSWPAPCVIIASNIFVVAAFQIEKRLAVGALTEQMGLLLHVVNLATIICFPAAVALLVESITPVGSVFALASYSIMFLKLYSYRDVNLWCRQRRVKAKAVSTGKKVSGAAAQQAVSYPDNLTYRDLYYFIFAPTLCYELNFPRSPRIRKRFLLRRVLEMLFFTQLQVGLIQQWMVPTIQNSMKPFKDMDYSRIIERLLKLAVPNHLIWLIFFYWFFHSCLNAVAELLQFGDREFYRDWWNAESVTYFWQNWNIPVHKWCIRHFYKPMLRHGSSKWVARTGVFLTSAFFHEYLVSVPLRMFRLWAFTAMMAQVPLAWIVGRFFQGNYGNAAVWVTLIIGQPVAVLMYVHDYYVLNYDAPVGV

T3: DGAT2-mCherry (diacylglycerol acyltransferase 2 fused to mCherry) (mouse) (UniProt Q9DCV3)
T3 sequence: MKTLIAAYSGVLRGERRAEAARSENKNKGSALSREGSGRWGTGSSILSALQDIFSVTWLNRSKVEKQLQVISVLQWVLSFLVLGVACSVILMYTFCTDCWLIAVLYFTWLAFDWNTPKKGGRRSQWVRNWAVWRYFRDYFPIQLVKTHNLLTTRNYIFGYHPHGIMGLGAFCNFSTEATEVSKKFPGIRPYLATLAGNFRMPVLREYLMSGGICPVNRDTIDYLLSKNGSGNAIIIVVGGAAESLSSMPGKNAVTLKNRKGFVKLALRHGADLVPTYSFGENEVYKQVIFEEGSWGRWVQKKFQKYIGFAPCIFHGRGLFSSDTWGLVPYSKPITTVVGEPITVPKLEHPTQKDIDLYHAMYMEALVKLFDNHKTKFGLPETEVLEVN

T4: PLIN3-mCherry (mouse) (UniProt Q9DBG5)
T4 sequence: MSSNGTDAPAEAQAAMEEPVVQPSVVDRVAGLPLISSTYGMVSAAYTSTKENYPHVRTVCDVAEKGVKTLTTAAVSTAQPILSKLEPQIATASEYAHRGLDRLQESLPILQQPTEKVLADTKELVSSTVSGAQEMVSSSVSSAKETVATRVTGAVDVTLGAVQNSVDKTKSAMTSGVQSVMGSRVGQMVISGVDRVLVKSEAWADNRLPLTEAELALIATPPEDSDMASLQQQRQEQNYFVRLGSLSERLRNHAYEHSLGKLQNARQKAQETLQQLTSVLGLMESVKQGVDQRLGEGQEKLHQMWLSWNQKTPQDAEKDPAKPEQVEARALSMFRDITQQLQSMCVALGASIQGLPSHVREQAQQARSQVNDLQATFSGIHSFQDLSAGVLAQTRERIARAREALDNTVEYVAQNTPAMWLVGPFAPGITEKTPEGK

T5: GPAT4-EGFP (mouse) (UniProt Q8K2C8)
T5 sequence: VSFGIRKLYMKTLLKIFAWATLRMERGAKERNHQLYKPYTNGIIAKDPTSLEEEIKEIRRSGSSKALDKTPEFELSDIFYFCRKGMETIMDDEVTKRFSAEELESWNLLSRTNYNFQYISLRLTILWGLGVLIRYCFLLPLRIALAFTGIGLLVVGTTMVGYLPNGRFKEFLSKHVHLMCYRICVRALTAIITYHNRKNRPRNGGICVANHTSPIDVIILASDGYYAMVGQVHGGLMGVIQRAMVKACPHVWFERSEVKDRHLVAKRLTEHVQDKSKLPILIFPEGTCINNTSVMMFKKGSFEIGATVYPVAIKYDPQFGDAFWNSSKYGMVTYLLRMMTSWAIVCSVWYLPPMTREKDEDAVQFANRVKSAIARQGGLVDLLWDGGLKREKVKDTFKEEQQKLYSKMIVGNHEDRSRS

T6: GPAT1-EGFP (mouse) (UniProt Q61586)
T6 sequence: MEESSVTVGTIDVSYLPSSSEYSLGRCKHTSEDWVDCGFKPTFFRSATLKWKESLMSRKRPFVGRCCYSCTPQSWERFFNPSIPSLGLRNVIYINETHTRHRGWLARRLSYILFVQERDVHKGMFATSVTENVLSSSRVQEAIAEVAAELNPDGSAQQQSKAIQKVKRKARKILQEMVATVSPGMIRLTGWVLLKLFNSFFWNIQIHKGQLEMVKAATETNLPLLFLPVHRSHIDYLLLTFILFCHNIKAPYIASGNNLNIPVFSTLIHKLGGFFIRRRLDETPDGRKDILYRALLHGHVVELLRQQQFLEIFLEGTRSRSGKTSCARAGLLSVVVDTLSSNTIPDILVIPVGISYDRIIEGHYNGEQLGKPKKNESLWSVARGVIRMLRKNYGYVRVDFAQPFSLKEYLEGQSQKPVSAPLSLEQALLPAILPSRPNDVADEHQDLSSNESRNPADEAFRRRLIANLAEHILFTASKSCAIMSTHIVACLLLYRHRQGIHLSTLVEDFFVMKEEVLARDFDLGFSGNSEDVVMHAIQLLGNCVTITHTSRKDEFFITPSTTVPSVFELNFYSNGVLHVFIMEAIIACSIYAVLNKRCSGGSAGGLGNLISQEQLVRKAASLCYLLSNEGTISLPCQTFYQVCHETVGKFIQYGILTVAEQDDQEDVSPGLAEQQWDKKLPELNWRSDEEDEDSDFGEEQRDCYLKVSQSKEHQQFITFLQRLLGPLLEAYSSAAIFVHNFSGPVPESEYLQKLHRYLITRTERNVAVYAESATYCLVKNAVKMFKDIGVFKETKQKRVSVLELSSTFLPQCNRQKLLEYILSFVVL


Experiments:
PLIN2-mCherry (mouse) = target: T1, PLIN2-mCherry (mouse); test: FRET or BRET; FRET-FLIM in live HepG2 cells co-transfected with donor (mEGFP/EGFP fusion) and acceptor (mCherry fusion), lipid loaded overnight with 0.8 mM oleate:palmitate (2:1); donor fluorescence lifetime with and without acceptor
[1] = target: T2, DGAT1-mCherry (diacylglycerol acyltransferase 1 fused to mCherry) (mouse); test: as above
[2] = target: T3, DGAT2-mCherry (diacylglycerol acyltransferase 2 fused to mCherry) (mouse); test: as above
PLIN3-mCherry (mouse) = target: T4, PLIN3-mCherry (mouse); test: as above
[3] = target: T2, DGAT1-mCherry (diacylglycerol acyltransferase 1 fused to mCherry) (mouse); test: FRET or BRET; FRET-FLIM repeated in fixed HepG2 cells co-expressing donor HILPDA-mEGFP and mCherry acceptor; donor fluorescence lifetime
[4] = target: T3, DGAT2-mCherry (diacylglycerol acyltransferase 2 fused to mCherry) (mouse); test: as above
GPAT4-EGFP (mouse) = target: T5, GPAT4-EGFP (mouse); test: FRET or BRET; FRET-FLIM in live HepG2 cells co-transfected with donor (mEGFP/EGFP fusion) and acceptor (mCherry fusion), lipid loaded overnight with 0.8 mM oleate:palmitate (2:1); donor fluorescence lifetime with and without acceptor
GPAT1-EGFP (mouse) = target: T6, GPAT1-EGFP (mouse); test: as above

| binding (PLIN2-mCherry (mouse)) | binding [1] | binding [2] | binding (PLIN3-mCherry (mouse)) | binding [3] | binding [4] | binding (GPAT4-EGFP (mouse)) | binding (GPAT1-EGFP (mouse)) | Binder |
| --- | --- | --- | --- | --- | --- | --- | --- | --- |
| no binding | binds | binds | no binding | binds | binds |  |  | HILPDA-mEGFP (hypoxia-inducible lipid droplet-associated fused to mEGFP) (protein, UniProt Q9JLS0 1-64) MKFMLNLYVLGIMLTLLSIFVRVMESLGGLLESPLPGSSWITRGQLANTQPPKGLPDHPSRGVQ |
|  |  |  |  |  |  | no binding | no binding | HILPDA-mCherry (protein, UniProt Q9JLS0 1-64) MKFMLNLYVLGIMLTLLSIFVRVMESLGGLLESPLPGSSWITRGQLANTQPPKGLPDHPSRGVQ |
